The target in assay [1] is PDGFRα wild type truncated after residue R979, fused to nanoluciferase or HaloTag (UniProt P16234). As to the kind of experiment: FRET or BRET; NanoBRET in living HEK293T cells between nanoluciferase and HaloTag (618 Ligand) fusions, 1 ng of each construct, read at 37 °C; cells stimulated with PDGF-BB.
Assay [2] concerns the target platelet-derived growth factor receptor alpha (PDGFRα) K385L, HA- and MYC-tagged (UniProt P16234). The experiment in a line: co-IP; HEK293T co-transfected with HA- and MYC-tagged PDGFRα; lysis in RIPA buffer; immunoprecipitation with anti-HA overnight at 4 °C, Protein A/G resin; western blot with anti-MYC; in the absence of ligand. (In general: A western blot detects proteins with antibodies after separation by electrophoresis.)

Chains of the proteins cited; added tags and fusions are not shown. Lines headed by an entry give the natural chain unless they say otherwise; changes in a name come on top. A line that says so, or that is headed by a name, gives the form on record, which may keep a tag or linker. Residues count along the entry.
UniProt P16234: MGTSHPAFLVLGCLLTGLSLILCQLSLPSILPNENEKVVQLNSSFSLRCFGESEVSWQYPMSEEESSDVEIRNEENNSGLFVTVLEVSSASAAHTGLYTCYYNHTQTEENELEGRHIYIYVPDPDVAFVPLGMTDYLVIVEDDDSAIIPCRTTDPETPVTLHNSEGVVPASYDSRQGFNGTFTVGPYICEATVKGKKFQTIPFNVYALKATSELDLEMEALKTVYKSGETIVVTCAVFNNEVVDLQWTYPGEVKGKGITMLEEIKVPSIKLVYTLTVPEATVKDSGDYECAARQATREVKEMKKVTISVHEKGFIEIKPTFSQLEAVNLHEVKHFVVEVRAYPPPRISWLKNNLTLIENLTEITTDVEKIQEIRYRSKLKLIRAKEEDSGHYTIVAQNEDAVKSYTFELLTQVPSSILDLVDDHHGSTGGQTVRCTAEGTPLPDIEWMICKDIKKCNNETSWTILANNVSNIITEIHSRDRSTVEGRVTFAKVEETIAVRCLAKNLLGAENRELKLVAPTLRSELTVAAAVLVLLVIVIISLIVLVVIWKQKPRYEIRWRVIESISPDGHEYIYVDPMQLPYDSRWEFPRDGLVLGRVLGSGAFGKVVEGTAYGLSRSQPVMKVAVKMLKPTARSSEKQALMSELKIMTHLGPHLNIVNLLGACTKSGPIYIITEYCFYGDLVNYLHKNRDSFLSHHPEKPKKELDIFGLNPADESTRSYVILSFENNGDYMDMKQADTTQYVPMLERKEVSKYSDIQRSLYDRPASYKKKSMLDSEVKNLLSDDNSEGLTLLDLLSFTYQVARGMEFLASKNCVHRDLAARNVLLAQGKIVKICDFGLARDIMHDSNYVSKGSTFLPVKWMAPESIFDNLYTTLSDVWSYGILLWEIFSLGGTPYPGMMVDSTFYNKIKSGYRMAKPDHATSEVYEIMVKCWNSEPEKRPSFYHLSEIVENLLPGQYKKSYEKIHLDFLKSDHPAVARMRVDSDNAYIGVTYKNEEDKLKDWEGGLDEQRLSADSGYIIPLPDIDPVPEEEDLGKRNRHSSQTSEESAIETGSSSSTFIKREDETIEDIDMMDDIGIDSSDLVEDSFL
platelet-derived growth factor receptor alpha (PDGFRα) K385L, HA- and MYC-tagged (P16234, form named): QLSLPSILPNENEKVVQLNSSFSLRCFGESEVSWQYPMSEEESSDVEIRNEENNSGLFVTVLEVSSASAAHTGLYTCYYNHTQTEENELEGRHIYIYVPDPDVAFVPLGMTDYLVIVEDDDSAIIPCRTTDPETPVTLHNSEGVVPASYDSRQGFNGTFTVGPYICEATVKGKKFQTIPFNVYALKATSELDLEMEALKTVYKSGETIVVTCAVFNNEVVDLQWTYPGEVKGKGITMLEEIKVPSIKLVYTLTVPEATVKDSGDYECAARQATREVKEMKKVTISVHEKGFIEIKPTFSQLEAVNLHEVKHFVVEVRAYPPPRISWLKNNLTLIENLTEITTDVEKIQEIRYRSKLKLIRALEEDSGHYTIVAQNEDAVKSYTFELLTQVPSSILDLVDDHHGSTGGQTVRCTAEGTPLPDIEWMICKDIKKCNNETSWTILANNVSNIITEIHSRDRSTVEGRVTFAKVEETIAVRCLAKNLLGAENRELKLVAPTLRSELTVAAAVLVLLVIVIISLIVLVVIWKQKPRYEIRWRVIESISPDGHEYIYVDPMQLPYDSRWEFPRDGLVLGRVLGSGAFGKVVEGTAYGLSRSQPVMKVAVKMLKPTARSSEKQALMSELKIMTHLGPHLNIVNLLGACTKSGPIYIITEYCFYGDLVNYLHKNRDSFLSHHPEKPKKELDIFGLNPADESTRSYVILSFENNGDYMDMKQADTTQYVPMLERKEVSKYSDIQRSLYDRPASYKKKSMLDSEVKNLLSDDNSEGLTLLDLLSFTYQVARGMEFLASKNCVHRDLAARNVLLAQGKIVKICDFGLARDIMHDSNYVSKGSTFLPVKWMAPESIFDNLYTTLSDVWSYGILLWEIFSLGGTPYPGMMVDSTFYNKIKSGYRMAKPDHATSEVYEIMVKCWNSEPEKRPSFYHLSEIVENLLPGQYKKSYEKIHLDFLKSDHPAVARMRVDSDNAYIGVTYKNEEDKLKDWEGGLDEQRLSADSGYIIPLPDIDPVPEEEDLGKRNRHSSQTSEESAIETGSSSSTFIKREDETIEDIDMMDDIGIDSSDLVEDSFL
PDGFRα K385I truncated after residue R979, fused to nanoluciferase or HaloTag (P16234, form named): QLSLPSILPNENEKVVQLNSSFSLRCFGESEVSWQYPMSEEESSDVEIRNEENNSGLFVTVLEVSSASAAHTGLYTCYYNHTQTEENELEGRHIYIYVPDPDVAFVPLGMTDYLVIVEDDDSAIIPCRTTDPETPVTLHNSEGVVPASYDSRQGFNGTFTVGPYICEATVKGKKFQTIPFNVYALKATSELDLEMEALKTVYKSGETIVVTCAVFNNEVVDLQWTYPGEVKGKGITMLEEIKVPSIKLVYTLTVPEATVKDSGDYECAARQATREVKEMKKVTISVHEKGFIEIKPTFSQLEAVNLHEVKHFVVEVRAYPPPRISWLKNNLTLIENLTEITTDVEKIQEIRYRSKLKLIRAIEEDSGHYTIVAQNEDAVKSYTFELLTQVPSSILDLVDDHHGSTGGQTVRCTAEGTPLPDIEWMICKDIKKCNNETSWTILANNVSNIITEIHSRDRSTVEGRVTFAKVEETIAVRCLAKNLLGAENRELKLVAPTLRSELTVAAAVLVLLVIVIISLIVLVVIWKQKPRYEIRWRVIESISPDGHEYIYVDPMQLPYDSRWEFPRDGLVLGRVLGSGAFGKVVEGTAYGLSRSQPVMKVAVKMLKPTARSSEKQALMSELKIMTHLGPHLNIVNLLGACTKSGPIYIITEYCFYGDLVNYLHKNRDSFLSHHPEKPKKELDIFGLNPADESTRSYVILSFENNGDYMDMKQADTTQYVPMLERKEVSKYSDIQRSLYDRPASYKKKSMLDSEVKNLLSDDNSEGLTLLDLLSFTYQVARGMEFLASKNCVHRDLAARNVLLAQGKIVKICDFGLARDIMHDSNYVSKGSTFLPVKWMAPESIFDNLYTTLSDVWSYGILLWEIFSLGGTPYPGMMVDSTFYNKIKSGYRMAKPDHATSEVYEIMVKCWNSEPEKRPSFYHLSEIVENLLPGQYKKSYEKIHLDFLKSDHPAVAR
UniProt P40238, residues 26-635: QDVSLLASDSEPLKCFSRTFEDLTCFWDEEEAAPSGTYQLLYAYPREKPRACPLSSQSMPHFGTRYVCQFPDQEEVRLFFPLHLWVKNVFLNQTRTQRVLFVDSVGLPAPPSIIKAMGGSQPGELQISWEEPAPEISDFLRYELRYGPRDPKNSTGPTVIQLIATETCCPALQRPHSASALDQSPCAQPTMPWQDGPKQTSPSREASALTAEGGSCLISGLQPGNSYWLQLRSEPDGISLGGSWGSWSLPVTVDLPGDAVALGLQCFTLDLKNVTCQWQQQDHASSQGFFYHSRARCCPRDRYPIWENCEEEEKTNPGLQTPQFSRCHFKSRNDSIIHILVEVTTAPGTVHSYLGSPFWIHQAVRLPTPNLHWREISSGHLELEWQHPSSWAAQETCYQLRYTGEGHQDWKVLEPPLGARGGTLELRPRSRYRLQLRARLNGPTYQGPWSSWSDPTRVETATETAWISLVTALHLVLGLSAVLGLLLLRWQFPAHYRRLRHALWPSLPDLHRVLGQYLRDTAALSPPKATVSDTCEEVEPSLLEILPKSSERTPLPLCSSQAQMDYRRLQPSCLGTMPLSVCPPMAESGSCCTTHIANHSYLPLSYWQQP

Assay [3] addresses PDGFRα K385I truncated after residue R979, fused to nanoluciferase or HaloTag (UniProt P16234). As to the kind of experiment: FRET or BRET; NanoBRET in living HEK293T cells between nanoluciferase and HaloTag (618 Ligand) fusions, 1 ng of each construct, read at 37 °C; no ligand named for these samples.
Assay [4] deals with PDGFRα wild type truncated after residue R979, fused to nanoluciferase or HaloTag (UniProt P16234). The description is as above.
Assay [5] has as its target platelet-derived growth factor receptor alpha (PDGFRα), wild type, HA- and MYC-tagged (UniProt P16234). As to the kind of experiment: co-IP; HEK293T co-transfected with HA- and MYC-tagged PDGFRα; lysis in RIPA buffer; immunoprecipitation with anti-HA overnight at 4 °C, Protein A/G resin; western blot with anti-MYC; in the absence of ligand.

Results are given in words; binding and its absence hold for the method and conditions named. In cells and extracts the contact can be indirect. Some entries that bind do so weakly or less than the wild type.

As to “PDGFRα wild type truncated after residue R979, fused to nanoluciferase or HaloTag (from UniProt P16234 24-979) (receptor)”, the binding result in assay [1] is “binds”. Regarding “platelet-derived growth factor receptor alpha (PDGFRα) K385L, HA- and MYC-tagged (from UniProt P16234 24-1089)”, the binding entry in assay [2] was “binds”.

For the substance “PDGFRα K385I truncated after residue R979, fused to nanoluciferase or HaloTag (from UniProt P16234 24-979) (receptor)”, in assay [3], the binding entry is listed as “binds”.

On to “thrombopoietin receptor (TPOR) fused to nanoluciferase or HaloTag (from UniProt P40238 26-635)”, for which the binding result in assay [4] and in assay [3] was “no binding” throughout.

Turning to “platelet-derived growth factor receptor alpha (PDGFRα), wild type, HA- and MYC-tagged (from UniProt P16234 24-1089)”, the binding entry in assay [5] is “binds weakly”.

The values above are taken from paper PMC10965988.
